# The supplement of paper PMC8728848
# Some of the results follow.
# Legend:
# Experiment in all cases: glycan array binding signal (z-score within array); higher = stronger binding
# Conditions in all cases: glycan notation: IUPAC condensed, linker removed
# [1] = molecular target: Fuc(a1-2)Gal
# Summary of the method: (§1)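 Glycan array binding is given as a within-array Z-score, which can be read as non-binding when negative. The arrays, 3228 of them, came from the Consortium for Functional Glycomics database and were retained only where the protein sequence was available. Z-scores were averaged across arrays of the same protein sequence at different concentrations or buffers and across linkers.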
# [2] = molecular target: Fuc(a1-2)Gal(b1-3)GalNAc
# Summary of the method: as §1
# [3] = molecular target: Fuc(a1-2)Gal(b1-3)GalNAc(b1-3)Gal
# Summary of the method: as §1
# [4] = molecular target: Fuc(a1-2)Gal(b1-3)GalNAc(b1-3)Gal(a1-4)Gal(b1-4)Glc
# Summary of the method: as §1
# [5] = molecular target: Fuc(a1-2)Gal(b1-3)GalNAc(b1-4)[Neu5Ac(a2-3)]Gal(b1-4)Glc
# Summary of the method: as §1
# [6] = molecular target: Fuc(a1-2)Gal(b1-3)GlcNAc
# Summary of the method: as §1
# [7] = molecular target: Fuc(a1-2)Gal(b1-3)GlcNAc(b1-3)Gal(b1-4)Glc
# Summary of the method: as §1
# [8] = molecular target: Fuc(a1-2)Gal(b1-3)[Fuc(a1-4)]GlcNAc
# Summary of the method: as §1
# [9] = molecular target: Fuc(a1-2)Gal(b1-4)Glc
# Summary of the method: as §1
# [10] = molecular target: Fuc(a1-2)Gal(b1-4)GlcNAc
# Summary of the method: as §1
# [11] = molecular target: Fuc(a1-2)Gal(b1-4)GlcNAc(b1-3)Gal(b1-4)GlcNAc
# Summary of the method: as §1
# [12] = molecular target: Fuc(a1-2)Gal(b1-4)GlcNAc(b1-3)Gal(b1-4)GlcNAc(b1-3)Gal(b1-4)GlcNAc
# Summary of the method: as §1
# [13] = molecular target: Fuc(a1-2)Gal(b1-4)[Fuc(a1-3)]GlcNAc
# Summary of the method: as §1
# [14] = molecular target: Fuc(a1-2)Gal(b1-4)[Fuc(a1-3)]GlcNAc(b1-3)Gal(b1-4)[Fuc(a1-3)]GlcNAc
# Summary of the method: as §1
# [15] = molecular target: Fuc(a1-2)Gal(b1-4)[Fuc(a1-3)]GlcNAc(b1-3)Gal(b1-4)[Fuc(a1-3)]GlcNAc(b1-3)Gal(b1-4)[Fuc(a1-3)]GlcNAc
# Summary of the method: as §1
# [16] = molecular target: Fuc(a1-2)GlcNAc
# Summary of the method: as §1
# [17] = molecular target: Fuc(a1-2)[Gal(a1-3)]Gal
# Summary of the method: as §1
# [18] = molecular target: Fuc(a1-2)[Gal(a1-3)]Gal(b1-3)GlcNAc
# Summary of the method: as §1
# [19] = molecular target: Fuc(a1-2)[Gal(a1-3)]Gal(b1-4)Glc
# Summary of the method: as §1
# [20] = molecular target: Fuc(a1-2)[Gal(a1-3)]Gal(b1-4)GlcNAc
# Summary of the method: as §1
# [21] = molecular target: Fuc(a1-2)[Gal(a1-3)]Gal(b1-4)[Fuc(a1-3)]GlcNAc
# Summary of the method: as §1
# [22] = molecular target: Fuc(a1-2)[Gal(a1-4)]Gal(b1-4)GlcNAc
# Summary of the method: as §1
# [23] = molecular target: Fuc(a1-2)[GalNAc(a1-3)]Gal
# Summary of the method: as §1
# [24] = molecular target: Fuc(a1-2)[GalNAc(a1-3)]Gal(b1-3)GlcNAc
# Summary of the method: as §1
# [25] = molecular target: Fuc(a1-2)[GalNAc(a1-3)]Gal(b1-4)Glc
# Summary of the method: as §1
# [26] = molecular target: Fuc(a1-2)[GalNAc(a1-3)]Gal(b1-4)GlcNAc
# Summary of the method: as §1
# [27] = molecular target: Fuc(a1-2)[GalNAc(a1-3)]Gal(b1-4)[Fuc(a1-3)]GlcNAc
# Summary of the method: as §1
# [28] = molecular target: Fuc(a1-2)[GalNAc(a1-4)]Gal(b1-4)GlcNAc
# Summary of the method: as §1
# [29] = molecular target: Fuc(a1-2)[GalNAc(b1-3)]Gal
# Summary of the method: as §1
# [30] = molecular target: Fuc(a1-3)GlcNAc
# Summary of the method: as §1
# [31] = molecular target: Fuc(a1-3)[Gal(b1-4)]GlcNAc
# Summary of the method: as §1
# [32] = molecular target: Fuc(a1-3)[Gal(b1-4)]GlcNAc(b1-4)Gal(b1-4)[Fuc(a1-3)]GlcNAc
# Summary of the method: as §1
# [33] = molecular target: Fuc(a1-3)[Gal(b1-4)]GlcNAc(b1-4)Gal(b1-4)[Fuc(a1-3)]GlcNAc(b1-4)Gal(b1-4)[Fuc(a1-3)]GlcNAc
# Summary of the method: as §1
# [34] = molecular target: Fuc(a1-3)[Gal3S(b1-4)]GlcNAc
# Summary of the method: as §1
# [35] = molecular target: Fuc(a1-3)[GalNAc(b1-4)]GlcNAc
# Summary of the method: as §1
# [36] = molecular target: Fuc(a1-4)GlcNAc
# Summary of the method: as §1
# [37] = molecular target: Fuc(b1-3)GlcNAc
# Summary of the method: as §1
# [38] = molecular target: Gal(a1-2)Gal
# Summary of the method: as §1
# [39] = molecular target: Gal(a1-3)Gal
# Summary of the method: as §1
# [40] = molecular target: Gal(a1-3)Gal(b1-3)GlcNAc
# Summary of the method: as §1
# [41] = molecular target: Gal(a1-3)Gal(b1-4)Glc
# Summary of the method: as §1
# [42] = molecular target: Gal(a1-3)Gal(b1-4)GlcNAc
# Summary of the method: as §1
# [43] = molecular target: Gal(a1-3)Gal(b1-4)[Fuc(a1-3)]GlcNAc
# Summary of the method: as §1
# [44] = molecular target: Gal(a1-3)GalNAc
# Summary of the method: as §1
# [45] = molecular target: Gal(a1-3)[Gal(a1-4)]Gal(b1-4)GlcNAc
# Summary of the method: as §1
binder,measurement,setting,value
"F17dG (Escherichia coli), Q47199 (protein) MTNFYKVFLAVFILVCCNISQAAVSFIGSTENDVGPSPGSYSRTHAMDNLPFVYNTGNNIGYQNANVWRISKGFCVGLDGKVDLPVVGSLDGQSIYGLTEEVGLLIWMGDTNYSRGTAMSGNSWENVFSGWCVGANTASTQGLSVRVTPVILKRNSSARYSVQKTSIGSIRMRPYNGSSAGSVQTTVNFSLNPFTLNDTVTSCRLLTPSAVNVSLAAISAGQLPSSGDEVVAGTTSLKLQCDAGVTVWATLTDATTPSNRSDILTLTGASTATGVGLRIYKNTDSTPLKFGPDSPVKGNENQWQLSTGTETSPSVRLYVKYVNTGEGINPGTVNGISTFTFSYQ",glycan array binding signal (z-score),[1],-0.064
same,glycan array binding signal (z-score),[2],-0.026
same,glycan array binding signal (z-score),[3],-0.125
same,glycan array binding signal (z-score),[4],-0.364
same,glycan array binding signal (z-score),[5],-0.317
same,glycan array binding signal (z-score),[6],-0.35
same,glycan array binding signal (z-score),[7],-0.383
same,glycan array binding signal (z-score),[8],-0.366
same,glycan array binding signal (z-score),[9],0.016
same,glycan array binding signal (z-score),[10],-0.185
same,glycan array binding signal (z-score),[11],-0.095
same,glycan array binding signal (z-score),[12],-0.381
same,glycan array binding signal (z-score),[13],-0.146
same,glycan array binding signal (z-score),[14],0.177
same,glycan array binding signal (z-score),[15],-0.311
same,glycan array binding signal (z-score),[16],-0.357
same,glycan array binding signal (z-score),[17],-0.276
same,glycan array binding signal (z-score),[18],-0.399
same,glycan array binding signal (z-score),[19],0.264
same,glycan array binding signal (z-score),[20],-0.184
same,glycan array binding signal (z-score),[21],-0.289
same,glycan array binding signal (z-score),[22],-0.366
same,glycan array binding signal (z-score),[23],-0.344
same,glycan array binding signal (z-score),[24],-0.052
same,glycan array binding signal (z-score),[25],-0.362
same,glycan array binding signal (z-score),[26],-0.232
same,glycan array binding signal (z-score),[27],-0.357
same,glycan array binding signal (z-score),[28],-0.357
same,glycan array binding signal (z-score),[29],-0.357
same,glycan array binding signal (z-score),[30],0.035
same,glycan array binding signal (z-score),[31],-0.321
same,glycan array binding signal (z-score),[32],-0.112
same,glycan array binding signal (z-score),[33],-0.134
same,glycan array binding signal (z-score),[34],-0.365
same,glycan array binding signal (z-score),[35],-0.362
same,glycan array binding signal (z-score),[36],-0.261
same,glycan array binding signal (z-score),[37],-0.225
same,glycan array binding signal (z-score),[38],-0.293
same,glycan array binding signal (z-score),[39],-0.326
same,glycan array binding signal (z-score),[40],-0.312
same,glycan array binding signal (z-score),[41],-0.414
same,glycan array binding signal (z-score),[42],-0.189
same,glycan array binding signal (z-score),[43],-0.405
same,glycan array binding signal (z-score),[44],-0.181
same,glycan array binding signal (z-score),[45],-0.399
